In PubChem BioAssay AID1347070 (National Center for Advancing Translational Sciences (NCATS), 2019):
Screen size: about 94,000 compounds; about 20 (0.02%) were called active. This list was built around the results that the source calls inconclusive (neither active nor inactive); the mix of calls is not that of the screen. Calls follow the shape of the dose curve; as a rule, active = well fitted activation curve with a large enough effect; inconclusive = small, poorly fitted or top-dose-only effect; inactive = flat fitted curve, though single readings scatter. Potencies of inconclusive entries are left out as doubtful fits.

experiment: qHTS of alpha-syn Inhibitors: NCGC Sytravon Library Screen; as to growth rescue (activation): 0% is about no effect; details: S. cerevisiae alpha-synuclein toxicity rescue, BacTiter-Glo growth, 24 h; growth rescue (activation): at 46.1 µM (top of the series)
Procedure, shortened: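 Growth restoration measured by BacTiter-Glo luminescence after 24 hr at 30 deg C; alpha-synuclein yeast, raffinose-pregrown to mid-log, were added at OD600=0.02 in galactose medium onto pinned compounds.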
Potency is read from the fitted curve at half-maximal effect; tags tell the direction and shape of the fitted curve.

| Structure (SMILES) | Potency | growth rescue (activation) |
| --- | --- | --- |
| COc1ccc(N(C)C(=O)c2oc(=O)c3ccccc3c2-c2ccc(C)cc2)c(OC)c1 | inconclusive [activator, single point] |  |
| CC1CCN(S(=O)(=O)c2ccc3nc(Nc4cccc(F)c4)ccc3c2)CC1 |  | inactive: 10.5% |
| CCN(CC(=O)NCc1ccc(Cl)cc1)C(=O)COc1ccc(Cl)cc1Br |  | inconclusive: 95.1% [activator] |
| CCn1c2c(c(=O)n3ncc(C(=O)Nc4ccc(OC(F)(F)F)cc4)c13)CN(Cc1ccc(OC)cc1)CC2 |  | inactive: 4.55% |
| COc1ccc(C2c3c(n(C)c4ccccc34)C(=O)N2CC(=O)Nc2ccccc2Cl)cc1 (stereo not drawn) | inconclusive [activator, single point] |  |
| CN(C)C(=O)COC(=O)c1cccc(CN2C(=O)c3ccccc3C2=O)c1 |  | inconclusive: 97% [activator] |
| CCSc1nc2c([nH]c3ccccc32)c(=O)n1-c1cccc(OC)c1 | inconclusive [activator, single point] |  |
| O=CN/N=C/c1c(O)ccc2ccccc12 |  | inconclusive: 55% [activator] |
| CCCCN(CCCC)C1=C(C(=O)c2ccccc2)N(CC)S(=O)(=O)c2ccccc21 |  | inconclusive: -63.3% [activator] |
| Cc1ccn2c(Nc3c(C)cccc3C)c(-c3ccc(Cl)s3)nc2c1 |  | inactive: -4.28% |
| COc1cccc(-n2c(-c3ccc(C)cc3)cc3c2CC(C)(C)CC3=O)c1 |  | inactive: -6.34% |
| CCOc1ccc(C(=O)N2CCC(c3ccncc3)CC2)cc1 |  | inactive: 0.757% |
| COC(=O)CC1=NN(c2ccc(OC)cc2)C(=O)/C1=C\c1ccc(Cl)cc1 |  | inconclusive: 39.7% [activator] |
| Cc1ccc(C)c(N2CCN(C(=O)CN3CCSc4ccccc43)CC2)c1 |  | inconclusive: 30.3% [activator] |
| COc1cccc2sc(N(Cc3cccnc3)C(=O)C3CCCCC3)nc12 | inconclusive [activator, single point] |  |
| O=C(C1CCCCC1)N(Cc1cccnc1)c1nc2c(F)cccc2s1 | inconclusive [activator, full curve] |  |
| Cc1ccc(N(C)S(=O)(=O)c2ccc(-c3cnc(C4CC4)o3)cc2)cc1 | inconclusive [activator, single point] |  |
| O=C(Nc1ccc(Br)cc1F)c1ccc2nc(CCc3ccccc3)oc2c1 |  | inactive: -3.74% |
| CC(=O)N1c2ccc(S(=O)(=O)NCc3ccc(Cl)cc3)cc2CC1C (stereo not drawn) |  | inactive: 2.08% |
| CCC1CN(C(=O)N2CCC(C(=O)NCCCc3ccccc3)CC2)c2ccccc2O1 (stereo not drawn) |  | inactive: -15.6% |
| O=C(Oc1coc(CSc2ncccn2)cc1=O)c1cccc([N+](=O)[O-])c1 |  | inconclusive: 42% [activator] |
| CC(C)C1C(=O)N(Cc2cn(Cc3ccco3)nn2)CCS(=O)(=O)N1Cc1ccc(-c2ccc(Cl)cc2)cc1 (stereo not drawn) |  | inconclusive: 56.5% [activator] |
| Cc1ccc(CN(Cc2ccco2)C(=O)c2cccc(C)c2)cc1 |  | inconclusive: 31.4% [activator] |
| CCC1CCCCN1CCCNC(=O)c1ccc2c(c1)sc1nc(-c3ccc(F)cc3)cn12 (stereo not drawn) |  | inactive: 1.36% |
| O=C(Nc1ccc(S(=O)(=O)N2CCCCCC2)cc1)c1cc(=O)c2ccccc2o1 |  | inactive: 5.92% |

| Structure (SMILES) | Potency | growth rescue (activation) |
| --- | --- | --- |
| Cc1ccc(CN(C(=O)COc2ccc(Br)cc2)c2ccccn2)o1 | inconclusive [activator, single point] |  |
| CCC(C)N(C(=O)CSc1nnc(NC(C)C)s1)C1CCS(=O)(=O)C1 (stereo not drawn) |  | inactive: 0.151% |
| Cn1c(=O)c(=O)n(C)c2cc(NC(=O)c3ccccc3Br)ccc21 | inconclusive [activator, single point] |  |
| CC(=O)N1CCc2c(sc3c2c(=O)n(Cc2ccccc2)c(=O)n3CC(=O)Nc2ccc(C)c(F)c2)C1 |  | inactive: -6.71% |
| COc1cccc(NC(=O)N2CCN(C(=O)c3nsc4ccccc34)CC2)c1 | inconclusive [activator, partial curve, poor fit] |  |
| CCOc1ccc(NC(=O)CN2C(=O)C(c3ccccc3)=NC23CCCCCC3)cc1 |  | inactive: 6.97% |
| Cc1ccc(O)c(C(=O)CC(=O)c2ccccc2Cl)c1 |  | inconclusive: 129% [activator] |
| CCc1cccc(NC(=O)CCS(=O)(=O)c2ccc(C)cc2)c1 |  | inactive: 0.808% |
| CCc1ccc(CNC(=O)CSCc2cnn(-c3ccccc3)c2-n2cccc2)cc1 | inconclusive [activator, single point] |  |
| COc1ccc(NC(=O)c2c(NCc3ccc(C)o3)sc3c2CCC(C)C3)cc1 (stereo not drawn) | active: 14.1 µM |  |
| COC(=O)c1ccc(NC(=S)NN2CCCCC2c2cccnc2)cc1 (stereo not drawn) |  | inconclusive: 40.4% [activator] |
| Cc1ccccc1-c1noc(CSc2nnc(Cc3ccccc3)n2-c2ccc(F)cc2)n1 | inconclusive [activator, single point] |  |
| CCOC(=O)c1cc(-c2ccc(F)cc2)n(CCC(=O)Nc2ccccc2OC)c1C | inconclusive [activator, single point] |  |
| COC(=O)c1ccccc1NC(=O)Cn1c(=O)n(CCCCC(=O)NCc2ccc3c(c2)OCO3)c(=O)c2ccccc21 |  | inactive: 7.13% |
| Cc1ccc(NC(=O)Cn2ncn3c(cc4ccccc43)c2=O)cc1C |  | inactive: 3.6% |
| CCOC(=O)CC(NC(=O)CCc1c(C)nc2cc(-c3ccccc3)nn2c1C)c1ccc(C)cc1 (stereo not drawn) | inconclusive [activator, single point] |  |
| O=C(NCc1ccc(Cl)cc1)c1cnc(N2CCOCC2)c2ccccc12 | inconclusive [activator, single point] |  |
| O=C(CC1N=C2c3ccccc3N=C(SCC(=O)Nc3ccccc3F)N2C1=O)NCc1ccc2c(c1)OCO2 (stereo not drawn) |  | inactive: -2.97% |
| CC(C)COc1ccc(C(=O)N2CCC(c3nc4ccccc4s3)CC2)cc1 | inconclusive [activator, single point] |  |
| COc1cc(/C=C2\C(=O)ON=C2c2ccc(Cl)cc2)ccc1O |  | inconclusive: 31.9% [activator] |
| Cc1cccc2sc(N(Cc3cccnc3)C(=O)COc3ccccc3)nc12 | inconclusive [activator, single point] |  |
| O=C(Cn1ncc2c3ccccc3n(Cc3cccc(Cl)c3)c2c1=O)N1CCCCCC1 | inconclusive [activator, single point] |  |
| Cc1cc(C)cc(NS(=O)(=O)c2ccc(F)cc2)c1 |  | inconclusive: 40.3% [activator] |
| Cn1c(/C(C#N)=C/c2ccc(C(F)(F)F)cc2)nc2ccccc21 | active: 2.51 µM |  |
| CCc1ccccc1N(CC)C(=O)Cn1nc(Cc2ccncc2)c2ccccc2c1=O |  | inactive: -2.28% |

| Structure (SMILES) | Potency | growth rescue (activation) |
| --- | --- | --- |
| O=S(=O)(c1ccc(F)cc1)c1snnc1-c1ccccc1 |  | inconclusive: 53.2% [activator] |
| CCc1ccc2occ(CC(=O)Nc3ccc(C)c(C)c3)c2c1 | inconclusive [activator, single point] |  |
| CCOc1ccc2nc(N(Cc3cccnc3)C(C)=O)sc2c1 | inconclusive [activator, single point] |  |
| CCCC(=O)Nc1ccccc1C(=O)OCc1cc(=O)n2nc(C(C)C)sc2n1 |  | inactive: -10.7% |
| O=C1NC(Cc2ccccc2)c2nc3ccc(F)cc3c(=O)n2-c2ncccc21 (stereo not drawn) |  | inactive: -10.2% |
| CCOc1ccccc1NC(=O)CSc1ccc2nc(-c3ccccc3)cn2n1 |  | inactive: -8.28% |
| CC(Oc1ccccc1)C(=O)Nc1nc(-c2ccccn2)cs1 (stereo not drawn) |  | inconclusive: 307% [activator] |
| O=C1c2sccc2-c2cccc3cccc1c23 |  | inconclusive: 34.3% [activator] |
| O=C(O)c1ccc(NCc2nc3ccccc3n2Cc2ccccc2)cc1 |  | inconclusive: 44.5% [activator] |
| O=S(=O)(NCc1ccccc1Cl)c1ccc(-c2cnc(C3CC3)o2)cc1 | inconclusive [activator, single point] |  |
| O=S(=O)(Nc1ccccc1Br)c1cccs1 |  | inactive: 5.51% |
| Cc1ccc2c(CC(=O)N3CCN(c4cccc(Cl)c4)CC3)coc2c1C | inconclusive [activator, single point] |  |
| COc1ccc(OC)c(NC(=O)CSC2=Nc3ccccc3C3=NC(CC(=O)NCc4ccco4)C(=O)N23)c1 (stereo not drawn) | inconclusive [activator, single point] |  |
| COc1ccc(F)cc1S(=O)(=O)NCCc1csc(-c2ccc(Cl)cc2)n1 | inconclusive [activator, single point] |  |
| O=C(CN1CCC(NC(=O)Nc2ccc(F)cc2)CC1)Nc1ccccc1[N+](=O)[O-] |  | inactive: 1.28% |
| O=C(CSc1nnc(CN2CCCC2)n1-c1ccc(F)cc1)c1ccc2c(c1)OCO2 |  | inactive: -7.99% |
| CCS(=O)(=O)c1ncc(Cl)c(C(=O)N(Cc2ccccc2)Cc2ccco2)n1 |  | inconclusive: 33.8% [activator] |
| Cc1ccc(C)c(CNC(=O)c2cnc3sc(N4CCCC4)nn3c2=O)c1 |  | inactive: 0.92% |
| Cc1ccsc1CN(C(=O)c1oc2ccccc2c1C)C1CCS(=O)(=O)C1 (stereo not drawn) | inconclusive [activator, single point] |  |
| CCOc1ccccc1NC(=O)COc1ccc(S(=O)(=O)NC2CCCCC2)cc1 | inconclusive [activator, single point] |  |
| CCc1ccccc1NC(=O)CSc1nc2c(oc3ccccc32)c(=O)n1-c1ccccc1F | inconclusive [activator, single point] |  |
| Cc1nn(C(C)C(=O)NC2CCC(C)CC2)c(=O)c2cc3sccc3n12 (stereo not drawn) | inconclusive [activator, single point] |  |
| COc1ccc(Cl)cc1NC(=O)c1cc(C)nn1-c1ccccc1 | inconclusive [activator, single point] |  |
